# Where “and” joins values, the source holds several entries; their conditions need not be identical. Equal entries are not always repeated.
# Experiments:
# [1] = tested on: porcine reproductive and respiratory syndrome virus (PRRSV)
# [2] = tested on: bovine respiratory syncytial virus (BRSV); conditions: BT cells
# [3] = tested on: bovine coronavirus (BCV)
# [4] = tested on: bovine viral diarrhea virus (BVDV); conditions: MDBK cells, 24-h time point
compound,measurement,setting,value
CO[C@H]1C[C@H](O[C@H]2CC[C@@]3(C)[C@H](CC[C@@H]4[C@@H]3CC[C@]3(C)[C@@H](C5=CC(=O)OC5)[C@@H](OC(C)=O)C[C@]43O)C2)O[C@@H](C)[C@@H]1O [oleandrin],inhibition of viral infectivity of progeny virus to new cells,"[1]; 24-48 h time period, 0.01 to 1 ug/ml oleandrin",78-98%
same,concentration range over which efficacious,"[1]; PRRSV, MARC 145 cells, therapeutic",≥ 0.05 µg/mL
same,concentration range over which efficacious,"[2]; BRSV, therapeutic",≥ 0.005 µg/mL
same,reduction in viral infectivity,[2]; 24-h time point and 48-h time point,62-100%
same,reduction in viral infectivity,[3],98-100% and 99-100%
same,inhibition of viral infectivity relative to control,[4],91-94%
